How the values were obtained:
[1] = target: E. coli DNA gyrase (Escherichia coli (strain K12), UniProt P0AES4+P0AES6); conditions: read-out: E. coli DNA Gyrase IC50
Protocol: E. coli gyrase supercoiling and its inhibition was assayed using a kit procured from Inpiralis (K0001) and the protocol (PMID: 2172086) was adapted with necessary modifications. The compounds to be tested weree incubated for 10 minutes with 2.5 nM of E. coli DNA gyrase in a 30 μl reaction volume and 3.2% DMSO. The reactions were then started with the addition of 60 ng relaxed pBR322 plasmid DNA and continued for 45 min at 37° C. The reaction mixture contained 35 mM Tris.HCl (pH 7.5), 24 mM KCl, 1.8 mM spermidine, 4 mM MgCl2, 2 mM DTT, 6.5% (w/v) glycerol, 0.1 mg/mL BSA, and 1 mM ATP. The reaction was then stopped by addition of 0.75 L of Proteinase K (20 mg/mL) and 3 μL of 2% SDS and further incubated at 37° C. for 30 min. This was followed by the addition of 4 μL of STEB (40% (w/v) sucrose, 100 mM Tris-HCl pH8, 1 mM EDTA, 0.5 mg/ml Bromophenol Blue), and the supercoiled/relaxed forms of plasmid DNA were separated by agarose gel electrophoresis. The 1% agarose gels were run for 3 h at 4V/cm in 1×TAE (40 mM Tris, 20 mM Acetic acid, 1 mM EDTA). To visualize the DNA the gels were stained for 10 min with 0.7 g/mL ethidium bromide and excess dye was removed by several washes with water. IC50 were determined by quantifying the supercoiled and relaxed DNA in each of the reactions from a gel image by a densitometric method using the Quantity One Software (Bio-rad).

[2] = target: E. coli topoisomerase IV (Escherichia coli (strain K12), UniProt P0AFI2+P20083); assay: biochemical
Protocol: E. coli topoisomerase IV decatenation activity and its inhibition was assayed using a kit procured from Inpiralis (D4002) and the kit protocol was adapted with necessary modifications similar to the gyrase supercoiling assays. The compounds to be tested were incubated for 10 minutes with 5 nM of E. coli topoisomerase IV in a 30 μl reaction volume and 3.2% DMSO. The reactions were started with the addition of 60 ng of kDNA and continued for 40 min at 37° C. The final reaction mixture contains 40 mM Tris.HCl (pH 7.6), 100 mM potassium glutamate, 10 mM magnesium acetate, 10 mM DTT, 1 mM ATP, and 50 μg/ml albumin. The reactions were stopped by addition of 0.75 L of Proteinase K (20 mg/mL) and 3 L of 2% SDS and further incubated at 37° C. for 30 min. This was followed by the addition of 4 L of STEB (40% (w/v) sucrose, 100 mM Tris-HCl pH8, 1 mM EDTA, 0.5 mg/ml Bromophenol Blue) and the kDNA/minicircles forms were separated by agarose gel electrophoresis. The 1% agarose gels were run for 3 h at 4V/cm in 1×TAE (40 mM Tris, 20 mM Acetic acid, 1 mM EDTA). To visualize the DNA, the gels were stained for 10 min with 0.7 μg/mL ethidium bromide and excess dye was removed by several washes with water. IC50 were determined by quantifying the Kinetoplast DNA band inside the gel well and decatenated minicircles that migrate into the gel in each of the reactions from a gel image by a densitometric method using the Quantity One Software (Bio-rad).

Question: `Cn1c(=O)cnc2ccc(OCCNCCC3CN(c4ccc5c(n4)NC(=O)CO5)C(=O)O3)nc21` (stereo not shown) [Compound 1, 6-(5-(2-((2-((4-methyl-3-oxo-3,4-dihydropyrido[2,3-b]pyrazin-6-yl)oxy)ethyl)amino)ethyl)-2-oxooxazolidin-3-yl)-2H-pyrido[3,2-b][1,4]oxazin-3(4H)-one] was tested. Which IC50 [1] did it give?
Answer: The IC50 was 67 nM.

Question: What about the IC50 [2] of the same compound?
Answer: The IC50 was 41 nM.

Question: `Cn1c(=O)ccc2ncc(OCCNCCC3CN(c4ccc5c(n4)NC(=O)CO5)C(=O)O3)nc21` (stereo not shown) [Compound 2, 6-(5-(2-((2-((5-methyl-6-oxo-5,6-dihydropyrido[2,3-b]pyrazin-3-yl)oxy)ethyl)amino)ethyl)-2-oxooxazolidin-3-yl)-2H-pyrido[3,2-b][1,4]oxazin-3(4H)-one] was tested. Which IC50 [1] did it give?
Answer: Its IC50 is 27 nM.

Question: What about the IC50 [2] of the same compound?
Answer: Its IC50 is 20 nM.

Question: With `Cn1c(=O)cnc2ccc(OCCNC[C@H]3CN(c4ccc5c(n4)NC(=O)CO5)C(=O)O3)nc21` [Compound 3, (S)-6-(5-(((2-((4-methyl-3-oxo-3,4-dihydropyrido[2,3-b]pyrazin-6-yl)oxy)ethyl)amino)methyl)-2-oxooxazolidin-3-yl)-2H1-pyrido[3,2-b][1,4]oxazin-3(4H)-one] as the compound, how does the IC50 [2] read?
Answer: The IC50 was 125 nM.

Question: Which results are given for `Cn1c(=O)cnc2ccc(OCCNC[C@@H]3CN(c4ccc5c(n4)NC(=O)CO5)C(=O)O3)nc21` [Compound 4, (R)-6-(5-(((2-((4-methyl-3-oxo-3,4-dihydropyrido[2,3-b]pyrazin-6-yl)oxy)ethyl)amino)methyl)-2-oxooxazolidin-3-yl)-2H-pyrido[3,2-b][1,4]oxazin-3(4H)-one]?
Answer: IC50 [1]: 51 nM; IC50 [2]: 241 nM

Question: Which IC50 [2] does the source give for `Cn1c(=O)ccc2ncc(OCCNC[C@H]3CN(c4ccc5c(n4)NC(=O)CO5)C(=O)O3)nc21` [Compound 5, (S)-6-(5-(((2-((5-methyl-6-oxo-5,6-dihydropyrido[2,3-b]pyrazin-3-yl)oxy)ethyl)amino)methyl)-2-oxooxazolidin-3-yl)-2H1-pyrido[3,2-b][1,4]oxazin-3(4H)-one] here?
Answer: The IC50 was 176 nM.

Question: How did the IC50 [1] turn out when `Cn1c(=O)cnc2ccc(OCCNC[C@H]3CN(c4cnc5c(n4)NC(=O)CO5)C(=O)O3)nc21` [Compound 7, (S)-6-(5-(((2-((4-methyl-3-oxo-3,4-dihydropyrido[2,3-b]pyrazin-6-yl)oxy)ethyl)amino)methyl)-2-oxooxazolidin-3-yl)-2H-pyrazino[3,2-b][1,4]oxazin-3(4H)-one] was run?
Answer: The IC50 was 18 nM.

Question: And the IC50 [2]?
Answer: The IC50 was 48 nM.

From patent publication US11590142B2, “Oxazolidinone antibiotic compounds and process of preparation” (Bugworks Research, Inc., priority 2018, dated 2023)
